The values below come from article PMC7819943, “Rice protein-binding microarrays: a tool to detect cis-acting elements near promoter regions in rice”.

The other results are listed elsewhere or left out.

The test has as its target T1, OsWOX13 (Oryza sativa, UniProt Q5QMM3 1-267).
T1 sequence: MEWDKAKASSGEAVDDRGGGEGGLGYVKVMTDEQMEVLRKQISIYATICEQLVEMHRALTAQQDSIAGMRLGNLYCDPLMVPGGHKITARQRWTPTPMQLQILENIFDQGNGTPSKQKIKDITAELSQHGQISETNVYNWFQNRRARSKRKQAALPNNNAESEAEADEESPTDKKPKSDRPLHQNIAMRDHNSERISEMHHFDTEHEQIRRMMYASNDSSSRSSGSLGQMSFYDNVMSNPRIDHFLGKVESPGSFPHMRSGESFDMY
Put plainly: protein-binding microarray (RPBM); PBS, 2% BSA, 51.3 ng/ul salmon testes DNA, 50 uM zinc acetate, 200 nM TF, 25 C, 1 h; high values mean tight binding. Conditions: protein: recombinant; tags: N-terminal polyhistidine and DsRed monomer fusion (pET32a); label: CyDye5-dUTP incorporated in the synthesized complementary strand; 3' TTTTT single-stranded linker to array surface; dsDNA, one strand shown. In short, it runs like this: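 The binding signal is fluorescence intensity per feature, in arbitrary units, read on an Axon 4000B scanner. Polyhistidine- and DsRed-tagged transcription factors (N-terminal fusions) from E. coli BL21-CodonPlus were purified on Ni–NTA and applied at 200 nM for 1 h at 25 °C to a double-stranded, BSA-blocked custom Agilent array in buffer with 50 µM zinc acetate.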
Consider “TTTGATGATAAACGATAAAATAAACAAAATTTATACATATCGGAGTCACCTAGTGCAG”, for which the binding signal was 4050 fluorescence intensity (a.u.).
The value for “GGGAGATTTGTAGTGCCGTGATAATTATGATGCCGCCAAACGGAGTCACCTAGTGCAG” was 8610 fluorescence intensity (a.u.).
The figure for “TCTAAAATGAATGGGTGAAATTGGCGCCAAGTTATCTGCTCGGAGTCACCTAGTGCAG” is 8620 fluorescence intensity (a.u.); for “ATTTATATGTCTAATTAATTAGGTTGTGTTTCTATTTCAACGGAGTCACCTAGTGCAG” it is 27300 fluorescence intensity (a.u.); for “AGGAAATTTTGCGTTTAGCCATCAATTGATCTATTCATGGCGGAGTCACCTAGTGCAG” it is 3870 fluorescence intensity (a.u.).
The figure for “TTGATCGATCACGCCAATTACCGGGTGCAGCTGCAAGCCTCGGAGTCACCTAGTGCAG” is 9470 fluorescence intensity (a.u.); for “ATAAAATAGAGATAAATGGAGATGTGTTTCTCCCATTACCCGGAGTCACCTAGTGCAG” it is 4690 fluorescence intensity (a.u.); for “TCTAATGATGCGTTAATACTAGTATACATCTGTAATGTCACGGAGTCACCTAGTGCAG” it is 3470 fluorescence intensity (a.u.).
“GATGATGGGGAATAAACTAATAATAAAATGGATATGTAGACGGAGTCACCTAGTGCAG”: the binding signal was 7470 fluorescence intensity (a.u.).
The value for “TTTTCAATGATTGGTATATGTGTGCTTGTGACATATATGCCGGAGTCACCTAGTGCAG” was 37000 fluorescence intensity (a.u.).
The figure for “GGGTGGGAGGGAGGGAGTACATGGTAAGGCCATTCAACAGCGGAGTCACCTAGTGCAG” is 6320 fluorescence intensity (a.u.); for “GCAGACGATGATGATATGACTGAAATACCCTCACCGTCCTCGGAGTCACCTAGTGCAG” it is 5860 fluorescence intensity (a.u.); for “CCGTTGACAGAGGTAGTACCTTACCATATTGGTCAGTAGCCGGAGTCACCTAGTGCAG” it is 15500 fluorescence intensity (a.u.).
The figure for “ATAAATTTTAAAGTTAACCTAATGGTTTTAAAATATATGACGGAGTCACCTAGTGCAG” is 6590 fluorescence intensity (a.u.); for “GAGATAATTGAAGCTTTGTTAAGCTTAAACACTGAACTAACGGAGTCACCTAGTGCAG” it is 16400 fluorescence intensity (a.u.).
On to “AGCAGATGAGTTGACAGGCAGGTTCTTGTCTTCACACTGTCGGAGTCACCTAGTGCAG”, for which the binding signal was 6630 fluorescence intensity (a.u.).
Consider “GGATGAGTTAATTTACATGGCTTATAAGGCTCGATGCTCCCGGAGTCACCTAGTGCAG”, for which the binding signal was 8320 fluorescence intensity (a.u.).
The figure for “AAGAATTTAAGCAAATTACCTTTATTACAAATTACTGATCCGGAGTCACCTAGTGCAG” is 5860 fluorescence intensity (a.u.).
As for “ATTATAATTGAAGTATAGTTGTACTGTAACTGTATTGTAACGGAGTCACCTAGTGCAG”, the binding signal was 32500 fluorescence intensity (a.u.).
With “AAAGAAAATGTTGACTGGATTGACACGCGTACGCTATGTACGGAGTCACCTAGTGCAG”, the binding signal was 16700 fluorescence intensity (a.u.).
As for “TCCTGATGAGCAGAATCCAATCAGAAAACGCATGCTCGATCGGAGTCACCTAGTGCAG”, the binding signal is 19300 fluorescence intensity (a.u.).
The figure for “ATCTCGCCCAATTATTAACGCCTCCCTTTGTACACCGCACCGGAGTCACCTAGTGCAG” is 3720 fluorescence intensity (a.u.); for “TCCATATTAATTGACGTTTTAGACAAGGTTGATGTCAAATCGGAGTCACCTAGTGCAG” it is 42600 fluorescence intensity (a.u.).
As to “TTAAATAGAGTTAGATTGAGGAATTACCAAAATAGAAATTCGGAGTCACCTAGTGCAG”, the binding signal is 19500 fluorescence intensity (a.u.).
Consider “GCATTTTATGTAAACTAATTGAGCACTTGAGGTGTTGAAGCGGAGTCACCTAGTGCAG”, for which the binding signal is 10400 fluorescence intensity (a.u.).
The value for “CAACTTCATCAGCAGAAATTGACATGGTGTGATATTTGTGCGGAGTCACCTAGTGCAG” was 3970 fluorescence intensity (a.u.).
The value for “GATTCCAAATTGACACTAAACCAAACCAAACCAATCCAACCGGAGTCACCTAGTGCAG” was 13500 fluorescence intensity (a.u.); that for “TGTTTGTGTATGTTATGTCTGTAATTACTTTTAGGCATTGCGGAGTCACCTAGTGCAG” was 3620 fluorescence intensity (a.u.).
The value for “AGGTAATTATAGTCCTTTTCTTATAACATTAATATATGCTCGGAGTCACCTAGTGCAG” was 16100 fluorescence intensity (a.u.); that for “AAAGATTGCTTACGATAGTTTGTATGAATGAAAAGTGACCCGGAGTCACCTAGTGCAG” was 5330 fluorescence intensity (a.u.); that for “GCTGCGCATATAATTATTCCCTCGCCAAGCTATATATATTCGGAGTCACCTAGTGCAG” was 3290 fluorescence intensity (a.u.).
For “AACTTCAAATTAGTAAACGAAAAGTTTCTGAGTTGGGAAACGGAGTCACCTAGTGCAG”, the binding signal is 3780 fluorescence intensity (a.u.).
The figure for “AGATTGCTTTACAATGATTAGATTGCTTTCCAATGGGACGCGGAGTCACCTAGTGCAG” is 13500 fluorescence intensity (a.u.); for “AGTGATGACATATAATTAACACAACTTTAGCTTGTACTTTCGGAGTCACCTAGTGCAG” it is 30100 fluorescence intensity (a.u.).
The figure for “ACCTTTTCTTGGAATTGGACCAAACAGTTTCAACTCCACCCGGAGTCACCTAGTGCAG” is 5360 fluorescence intensity (a.u.); for “CCCTAAAATTAACCAACCAAACCAAATCGCGTTTAATTTTCGGAGTCACCTAGTGCAG” it is 5210 fluorescence intensity (a.u.).
For “AGGCCTGGGATGATTGAGATGATACTTAAGTATCTTGGAGCGGAGTCACCTAGTGCAG”, the binding signal is 12100 fluorescence intensity (a.u.).
The figure for “ACTCACGCGCAATTAGCTGGTTTTGATGGGTCAGGAGGAACGGAGTCACCTAGTGCAG” is 5020 fluorescence intensity (a.u.); for “GAAGATTGGGCCAGTAAATGGGCCTATAAATCGGGACGTTCGGAGTCACCTAGTGCAG” it is 13500 fluorescence intensity (a.u.); for “TAGTCCTAATTACTAACTACCAAATCTCTTGGATCTTGATCGGAGTCACCTAGTGCAG” it is 11500 fluorescence intensity (a.u.).
The figure for “AACCTTAAATTAGCGGGCAAATTCAGGAGTACTTCAGTGGCGGAGTCACCTAGTGCAG” is 22400 fluorescence intensity (a.u.); for “TTCTCACGTCTAACCAATCACTTCTCTCCATTTACGAACCCGGAGTCACCTAGTGCAG” it is 8150 fluorescence intensity (a.u.).
The figure for “GAAGTAAACGTAACTCAATTAATTAGATTTCTAAGATTATCGGAGTCACCTAGTGCAG” is 5680 fluorescence intensity (a.u.); for “AAAATTATTTGTTGAAACATATAAATAGATCACGTGCAACCGGAGTCACCTAGTGCAG” it is 3790 fluorescence intensity (a.u.).
On to “CTAGACAGACTGGCATCAGTCAAGCTTTCTCAAGTGAAAACGGAGTCACCTAGTGCAG”, for which the binding signal is 23800 fluorescence intensity (a.u.).
The figure for “GCAGAGAGAGGGGAGGAGGGTGGGTGGCGGCGGCGGCTAGCGGAGTCACCTAGTGCAG” is 3440 fluorescence intensity (a.u.); for “GAGGAGAAGGTCAGTCAATCAGTGGCCGATCCCAATCGAACGGAGTCACCTAGTGCAG” it is 6750 fluorescence intensity (a.u.); for “GAGTAATAATTGTACTCTATTATCAATTTGTTATTATGTACGGAGTCACCTAGTGCAG” it is 12600 fluorescence intensity (a.u.).
The value for “ACCAAATTTCCTAGAAAATTAGGAGTGTCTGGTTGGTTTCCGGAGTCACCTAGTGCAG” was 5400 fluorescence intensity (a.u.); that for “TTTTCTTGACTGATAGAAGAGTCAAAAGTTTGTGAGCAAACGGAGTCACCTAGTGCAG” was 8150 fluorescence intensity (a.u.).
The value for “AGGTCAATTAAGCGGCCTCCTACCGTACCACACAACTACACGGAGTCACCTAGTGCAG” was 7080 fluorescence intensity (a.u.); that for “GACAAGATCAGTCCTAATTATATATATGTTTTACCTTCTACGGAGTCACCTAGTGCAG” was 4490 fluorescence intensity (a.u.); that for “AATCAATCAATTAGTTAGAGATCAAGTTATTAGTGTCCAACGGAGTCACCTAGTGCAG” was 31100 fluorescence intensity (a.u.).
Turning to “CATCTATACATATAATTAGTTAGGTATGTAATCATGGATTCGGAGTCACCTAGTGCAG”, the binding signal is 3440 fluorescence intensity (a.u.).
